From PubChem BioAssay AID493208 (National Center for Advancing Translational Sciences (NCATS), 2011)
The campaign covered roughly 44,000 compounds. About 340 (0.77%) were called active. Not shown: some 5% with an inconclusive outcome. Calls follow the shape of the dose curve; as a rule, active = well fitted inhibition curve with a large enough effect; inconclusive = small, poorly fitted or top-dose-only effect; inactive = flat fitted curve, though single readings scatter. The list shows a part of the results.

Assay: Acumen qHTS Assay for Inhibitors of the mTORC1 Signaling Pathway in MEF (Tsc2-/-, p53-/-) Cells: Sytravon; also: nearly all actives have a fitted effect of over 50% in size;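 as to activity change, negative = inhibition: plate controls were DMSO for no effect and rapamycin for full effect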
Conditions: phospho-rpS6 immunofluorescence/PI, 24 h; series mostly up to 38.3 µM; activity change, negative = inhibition: at the top concentration
Outline: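 Readout is phospho-S6 Alexa 488 signal normalized to PI per well, reported as % active cells with thresholds set from rapamycin (7.5 nM) and DMSO controls. Cells: Tsc2-/-, p53-/- MEFs, 24 hrs compound at 37 C; PI cell number serves as viability.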
Potency is read from the fitted curve at half-maximal effect.

Structure (SMILES)	activity change, negative = inhibition	Potency
Cc1cc(O)c(C(c2ccc(F)cc2)N2CCN(c3ccccc3)CC2)c(=O)n1Cc1ccco1 (centres undefined)	inactive: 1.28%	
O=C(CSc1nc2c(c(=O)[nH]1)CCC2)Nc1cccc(O)c1	inactive: 1.87%	
CC(NC(=O)c1cccc(Nc2nc3ccccc3n3nnnc23)c1)c1ccccc1 (centres undefined)	inactive: -15.1%	
COc1ccc(OC)c(NC(=O)Nc2cccc(OCc3cc(=O)n4cc(C)ccc4n3)c2)c1	inactive: 2.05%	
CCn1c(=O)c2sccc2n2c(CCCC(=O)Nc3ccc(C)cc3)nnc12	inactive: -3.43%	
Cc1ccc(N2CCN(c3ncnc4onc(-c5ccc(F)cc5)c34)CC2)c(C)c1	inactive: 1.96%	
COc1cc(NC(=O)c2c(C)nn(-c3ccc(F)cc3)c2-n2cccc2)cc(OC)c1	inactive: 2.32%	
Cc1ccc(S(=O)(=O)NCCc2nnc3ccc(SCc4cccc(F)c4)nn23)cc1	inactive: -2.71%	
COc1ccc(-c2nc3ccccc3o2)cc1NC(=O)c1ccc(-c2ccc(C)c(Cl)c2)o1	inactive: 3.09%	
COc1ccc(CC(=O)Nc2c(C(=O)N3CCN(c4ccccc4F)CC3)oc3ccccc23)cc1OC	inactive: 1.94%	
CCN(C(=O)c1cc2c(=O)oc3ccccc3c2s1)c1cccc(C(F)(F)F)c1	inactive: 0%	
CCOc1ccc(OCC)c(Nc2nc3ccccc3n3nnnc23)c1	inactive: -5.48%	
O=C1C2=C(Nc3ccccc3SC2c2ccc(C(F)(F)F)cc2)c2ccccc21 (centres undefined)	inactive: -14.9%	
O=C(CN1C=NS(=O)(=O)c2ccccc21)Nc1ccc(Br)cc1	inactive: -5.7%	
Cc1ccccc1CNC(=O)CCCn1ncn2c(cc3occc32)c1=O	inactive: -12%	
COc1ccc(NC(=O)CSC2=Nc3ccccc3C3=NC(Cc4ccccc4)C(=O)N23)cc1 (centres undefined)	inactive: 14.1%	
COc1ccccc1Nc1ncc2c(n1)CCN(CC(C)C)C2	inactive: 6.07%	
COCCNC(=O)c1ccc2c(c1)NC(=O)C(CS(=O)(=O)Cc1ccc(F)cc1Cl)N2 (centres undefined)	inactive: -3.85%	
COc1ccc(NC(=O)c2c(NC(=O)c3cccc(C)c3)sc3c2CCC3)cc1	inactive: -9.71%	
COc1cccc(CNC(=O)c2ccc3oc(=O)n(Cc4ccccc4)c3c2)c1	inactive: 0.957%	
Cc1ccccc1CN1C(=O)c2ccccc2Sc2ccc(C(=O)N3CCOCC3)cc21	inactive: 6.64%	
COc1ccccc1-c1c(C(F)(F)F)oc2c(CN3CCCCC3C)c(O)ccc2c1=O (centres undefined)	inactive: -15%	
CC(=O)c1[nH]c(C)c(C(=O)NCc2ccc(Cl)cc2)c1C	inactive: -10.1%	
COc1cc(C)c(S(=O)(=O)Nc2cccc(-c3ccc(N4CCCC4)nn3)c2)cc1C	inactive: 1.5%	
Cc1cc(F)ccc1NC(=O)CCS(=O)(=O)c1cccc2nsnc12	inactive: -6.14%	

Structure (SMILES)	activity change, negative = inhibition	Potency
Cc1cccc(-c2nc(-c3ccc4c(c3)[nH]c(=O)n4C)no2)c1	inactive: -0.135%	
CCCN(CCC)CCCNC(=O)c1cc2c(-c3ccc(Cl)cc3)nn(C)c2s1		active: 13.1 µM
Cc1cccc(NC(=O)CSc2nc3c(oc4ccccc43)c(=O)n2-c2ccccc2)c1C	inactive: -2.31%	
Cc1ccc(S(=O)(=O)N2CCC(C(=O)Nc3cc(C)ccc3C)CC2)cc1	inactive: 3.82%	
COc1cc(-c2cc3n(C)c(C)c(CCC(=O)Nc4ccc(F)cc4)c(=O)n3n2)cc(OC)c1OC	inactive: 0.123%	
COc1ccc(Cn2c(=O)c3oc4ccccc4c3n(Cc3ccccc3)c2=O)cc1	inactive: -5.73%	
Cc1ccc(OCCSc2nc(-c3cccs3)nc3cc(=O)[nH]n23)cc1Cl	inactive: 4.84%	
CCOC(=O)c1[nH]c(C)c(CCC(=O)NCc2cccc(Cl)c2)c1C	inactive: 4.72%	
O=C(CSc1c2c(nc3ccccc13)CCC2)Nc1ccc(F)cc1F	inactive: -11.6%	
COc1ccccc1CCNC(=O)Cc1c(C)c2c(O)cc(C)cc2oc1=O	inactive: -14.7%	
COC(=O)c1ccc([C@@H]2Nc3c(cccc3C(F)(F)F)[C@@H]3C=CC[C@@H]32)cc1	inactive: -6.77%	
Cc1ccc(NC(=O)CSc2nc3c(c(=O)[nH]2)CN(Cc2ccccc2)CC3)cc1Cl	inactive: 2.22%	
CC(=O)N1c2ccccc2C(=O)C1N1CCN(c2cccc(C)c2C)CC1 (centres undefined)	inactive: -6.11%	
Nc1nc2nc(-c3ccc(Cl)cc3)cc(C(F)(F)F)n2n1	inactive: -2.5%	
COC(=O)c1c(NC(=O)C2c3ccccc3Oc3ccccc32)sc2c1CCC(C)C2 (centres undefined)	inactive: -3.04%	
Nc1nonc1-c1nc2ccccc2n1Cc1ccc(Br)cc1	inactive: 3.65%	
CC(CNC(=O)c1sc2ncccc2c1-n1cccc1)c1ccccc1 (centres undefined)	inactive: 0.731%	
CC(C)(Oc1ccc(Cl)cc1)C(=O)Nc1cccc(-c2cn3cccnc3n2)c1	inactive: 0.534%	
Cc1nc2scc(C)n2c(=O)c1S(=O)(=O)Nc1ccc(N2CCN(C(=O)C(C)C)CC2)cc1	inactive: -9.89%	
Cc1ccc(NC(=O)C2=CC(c3cccs3)=NS(=O)(=O)N2C)cc1	inactive: 0.733%	
O=C(CC(c1cccs1)N1Cc2ccccc2C1=O)Nc1ccccc1F (centres undefined)	inactive: -5.97%	
Cc1ccc(CSC2=Nc3ccccc3C3=NC(CCC(=O)NCCc4ccccc4)C(=O)N23)cc1 (centres undefined)	inactive: 0.0741%	
COC(=O)c1cc2occc2n1Cc1ccc(F)cc1Cl	inactive: -5.67%	
Cc1ccc(NC(=O)CN2C(=O)CSc3ccc(S(=O)(=O)N(C)C)cc32)cc1C	inactive: -16.4%	
